Out of some 310,000 compounds screened, about 2,200 (0.71%) showed an effect of 50% or more. Effects have a minus sign here. The list shows a part of the results.

The source of these data is article PMC4336329 (PLoS ONE, 2015).

For the assay, the target named is human ether-à-go-go-related gene (hERG) potassium channel (human, UniProt Q12809). The assay can be described thus: primary screen, population patch clamp on CHO cells stably expressing hERG.
Chain of human ether-à-go-go-related gene (hERG) potassium channel (Q12809 whole entry, looked up): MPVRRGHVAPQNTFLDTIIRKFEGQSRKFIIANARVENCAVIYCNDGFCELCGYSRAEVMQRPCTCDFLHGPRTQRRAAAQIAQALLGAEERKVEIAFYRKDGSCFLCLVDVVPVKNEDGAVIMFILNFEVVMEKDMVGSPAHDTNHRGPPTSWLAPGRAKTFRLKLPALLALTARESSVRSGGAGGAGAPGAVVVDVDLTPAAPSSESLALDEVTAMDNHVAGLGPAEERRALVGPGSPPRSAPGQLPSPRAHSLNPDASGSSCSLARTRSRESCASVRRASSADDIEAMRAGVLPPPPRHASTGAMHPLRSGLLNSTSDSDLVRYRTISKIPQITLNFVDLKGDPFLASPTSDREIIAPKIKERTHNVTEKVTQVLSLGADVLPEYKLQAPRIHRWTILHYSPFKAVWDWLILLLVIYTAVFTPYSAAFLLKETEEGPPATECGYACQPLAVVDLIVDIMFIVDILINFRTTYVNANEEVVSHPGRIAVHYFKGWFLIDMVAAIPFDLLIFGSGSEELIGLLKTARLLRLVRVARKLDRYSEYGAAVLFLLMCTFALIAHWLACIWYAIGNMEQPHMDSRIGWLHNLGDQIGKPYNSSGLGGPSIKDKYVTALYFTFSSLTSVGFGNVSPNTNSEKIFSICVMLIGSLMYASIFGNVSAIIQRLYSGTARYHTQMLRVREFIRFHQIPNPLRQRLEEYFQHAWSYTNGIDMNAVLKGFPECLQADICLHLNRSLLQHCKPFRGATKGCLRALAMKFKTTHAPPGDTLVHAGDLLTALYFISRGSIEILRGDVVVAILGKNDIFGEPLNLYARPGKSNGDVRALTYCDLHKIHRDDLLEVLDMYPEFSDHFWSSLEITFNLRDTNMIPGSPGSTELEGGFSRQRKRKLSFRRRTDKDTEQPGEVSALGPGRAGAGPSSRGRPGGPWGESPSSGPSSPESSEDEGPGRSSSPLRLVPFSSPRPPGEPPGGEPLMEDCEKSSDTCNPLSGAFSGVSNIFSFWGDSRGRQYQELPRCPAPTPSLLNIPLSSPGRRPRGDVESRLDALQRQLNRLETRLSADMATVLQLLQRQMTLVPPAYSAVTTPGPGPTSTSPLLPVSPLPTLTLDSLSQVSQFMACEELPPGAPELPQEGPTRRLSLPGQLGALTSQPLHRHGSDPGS
Consider `C[N+]1(CC2COC3(CCCCC3)O2)CCCC1.[I-]` (stereo not drawn), for which the “hERG current change (%, negative = inhibition) at 1uM” value is 11.6%.
`O=C(COCc1cc(-c2ccc3c(c2)OCO3)on1)N1CCN(c2cccc(Cl)c2)CC1`: the “hERG current change (%, negative = inhibition) at 1uM” value was 10.3%.
With `CCOCCCN(C)C1CCN(C(=O)c2oc3ccccc3c2NC(=O)Cc2ccc([N+](=O)[O-])cc2)CC1`, the “hERG current change (%, negative = inhibition) at 1uM” value was -89.1%.
For `COc1ccc(CNc2nc3c(c(=O)[nH]c(=O)n3C)n2Cc2ccccc2C)cc1` the value was 13.4%.
`CCOC(=O)C(=O)Nc1nc(-c2ccccc2)c(-c2ccccc2)o1`: the “hERG current change (%, negative = inhibition) at 1uM” value was found to be 1.95%.
With `CC(C)(C)c1nnc(NC(=O)C2CC(=O)N(CCc3ccc(F)cc3)C2)s1` (stereo not drawn), the “hERG current change (%, negative = inhibition) at 1uM” value came to 12.2%.
`O=C(Cc1ccccc1)NNC(=O)Nc1ccccc1`: the “hERG current change (%, negative = inhibition) at 1uM” value is on record as 11.1%.
In the case of `CCCn1nc(NC(=O)c2ccco2)c2cc3ccc(C)cc3nc21`, the “hERG current change (%, negative = inhibition) at 1uM” value came out at 0.437%.
`COc1ccc2cc(-c3[nH]ncc3CN3CCCCO3)ccc2c1`: the “hERG current change (%, negative = inhibition) at 1uM” value is reported as 1.71%.
As to `CCc1ccc2oc(=O)cc(CN3CCN(c4ccc(F)cc4)CC3)c2c1`, the “hERG current change (%, negative = inhibition) at 1uM” value came out at 8.35%.
Consider `Cc1cnc(C(=O)OCC(=O)NCCCc2ccccc2)cn1`, for which the “hERG current change (%, negative = inhibition) at 1uM” value came out at 13.7%.
As for `COc1ccc(CN(Cc2ccccn2)S(=O)(=O)c2ccc(-n3cnnn3)c(OC)c2)cc1`, the “hERG current change (%, negative = inhibition) at 1uM” value is listed as -4.46%.
As to `O=C(O)C1C2CCC(C2)C1C(=O)Nc1ccccc1` (stereo not drawn), the “hERG current change (%, negative = inhibition) at 1uM” value is 3.71%.
Turning to `Cc1ccc(C2=NN(C(=O)CCC(=O)O)C(c3ccc4c(c3)OCO4)C2)cc1` (stereo not drawn), the “hERG current change (%, negative = inhibition) at 1uM” value stood at 6.31%.
`COc1cccc(/C=N/NC(=O)CCn2c3ccccc3c3ccccc32)c1`: the “hERG current change (%, negative = inhibition) at 1uM” value was -7.19%.
Consider `CC12CCC(C(=O)N(CCCN3CCN(Cc4ccccc4)CC3)C1=O)C2(C)C.Cl` (stereo not drawn), for which the “hERG current change (%, negative = inhibition) at 1uM” value is 2.96%.
Take `COc1ccc(/C=C2\CCCC(C(=O)C(F)(F)F)=C2O)cc1OC`: the “hERG current change (%, negative = inhibition) at 1uM” value came out at 5.34%.
For `COc1ccc(C(=O)Nc2ccc(C(=O)N3CCC(C)CC3)cc2)cc1OC`, the “hERG current change (%, negative = inhibition) at 1uM” value amounted to 13.8%.
`CCCCCC(=O)N1CCN(S(=O)(=O)c2ccc3c(c2)OCCO3)CC1`: the “hERG current change (%, negative = inhibition) at 1uM” value is -31.2%.
In the case of `O=C(/C=C/c1ccco1)N1CCN(S(=O)(=O)c2cccs2)CC1`, the “hERG current change (%, negative = inhibition) at 1uM” value is listed as 9.56%.
The value for `N#C/C(=N\Nc1ccc([N+](=O)[O-])cc1)C(=N)N1CCOCC1` was -12.3%.
For the compound `CN(C)c1ccc(C(=O)NCC(c2cccs2)N2CCOCC2)cc1[N+](=O)[O-]` (stereo not drawn), the “hERG current change (%, negative = inhibition) at 1uM” value amounted to 3.86%.
In the case of `O=C(c1ccc(Br)cc1)N1CCC(C(=O)N2CCN(Cc3ccccc3)CC2)CC1`, the “hERG current change (%, negative = inhibition) at 1uM” value is -15.8%.
Consider `Fc1cccc(Cc2noc(CN3CCCCC3CCc3ccccn3)n2)c1` (stereo not drawn), for which the “hERG current change (%, negative = inhibition) at 1uM” value is given as 13.2%.
For the compound `O=C(CN1CCOCC1)Nc1ncc(Cc2cccc(Cl)c2)s1`, the “hERG current change (%, negative = inhibition) at 1uM” value is recorded as -7.1%.
Take `CC1(C)CC(NC(=O)c2ccccc2Cl)CC(C)(C)N1.Cl`: the “hERG current change (%, negative = inhibition) at 1uM” value was 12.9%.
On to `CCC(C(=O)Nc1cc(Cl)c(OC)cc1OC)c1ccccc1` (stereo not drawn), for which the “hERG current change (%, negative = inhibition) at 1uM” value is -2.68%.
As for `O=C(CCCN1C(=O)c2cccnc2Oc2ccc(Cl)cc21)N1CCCCC1`, the “hERG current change (%, negative = inhibition) at 1uM” value is on record as -0.408%.
Regarding `C=CCSc1nc2c(cnn2-c2ccccc2)c(=O)n1N`, the “hERG current change (%, negative = inhibition) at 1uM” value stood at 8.15%.
`Fc1cccc(-n2c(-c3cccs3)nc3nc4ccccc4nc32)c1`: the “hERG current change (%, negative = inhibition) at 1uM” value was determined as 8.2%.
For the compound `COc1cccc(-c2ccc(SCC(=O)N3CCOCC3)nn2)c1`, the “hERG current change (%, negative = inhibition) at 1uM” value came out at 8.5%.
As for `Cc1ccccc1C(=O)N1CCC(C(=O)NC2CCCC2)CC1`, the “hERG current change (%, negative = inhibition) at 1uM” value was 13.7%.
In the case of `CC(=O)c1ccc(S(=O)(=O)N2CCN(CC(=O)NC(=O)NC3CCCCC3)CC2)cc1`, the “hERG current change (%, negative = inhibition) at 1uM” value is 7.69%.
Consider `COc1ccc(OC)c(-c2csc(NC(=O)COC(=O)C3CCC3)n2)c1`, for which the “hERG current change (%, negative = inhibition) at 1uM” value was 1.09%.
The value for `Cc1nc(C(=O)NC2CC2)sc1C1(C)CC(c2cccc([N+](=O)[O-])c2)=NO1` (stereo not drawn) was -0.499%; that for `COc1ccc(S(=O)(=O)N2CCOC2CNC(=O)C(=O)NCCc2ccc(OC)c(OC)c2)cc1C` (stereo not drawn) was 12.4%; that for `CCc1cccc(NC(=O)Cn2c(-c3ccccc3)cc(C(C)=O)c2C)c1` was 11.4%.
As to `CCCn1c(C(=O)c2ccccc2)nc2ccccc21`, the “hERG current change (%, negative = inhibition) at 1uM” value is -1.32%.
The value for `Cc1cc(C)n2nc(C(=O)OCC(=O)c3cc(C)n(C)c3C)nc2n1` was 12.7%; that for `Cc1ccc(NC(=O)c2ccc(Cl)cc2[N+](=O)[O-])nc1` was 10.5%.
For `O=C(/C=C/c1ccc(Cl)c([N+](=O)[O-])c1)Nc1cccc(NC(=O)c2ccco2)c1`, the “hERG current change (%, negative = inhibition) at 1uM” value worked out at 4.12%.
For the compound `CSc1ccccc1NC(=O)CN1CC(C)OC(C)C1` (stereo not drawn), the “hERG current change (%, negative = inhibition) at 1uM” value is 9.79%.
For `Cc1cc(O)c(C(C[N+](=O)[O-])c2ccc(Cl)cc2Cl)c(=O)o1` (stereo not drawn) the value was 4.33%; for `COc1ccc(NC(=O)c2c(NC(=O)CCC(=O)O)sc3c2CCCCC3)cc1`, 15.9%; for `Cc1nn(C)c(C)c1NS(=O)(=O)c1cccc(Br)c1`, 12.5%.
